The source of these data is the supplement of paper PMC11417369.

± gives the standard deviation of the averaged measurements. Some of the results follow.

This assay has as its system PfAP2-LT AP2 domain (GST-tagged). Nature of the assay: gcPBM binding intensity (ln(normalized median fluorescence intensity)); higher = stronger DNA binding. The procedure, abridged:
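Alexa488 anti-GST antibody, scanned at 488 nm, detected GST-tagged P. falciparum DNA-binding domains that had been expressed in E. coli and incubated for 1 h on an Agilent 4 × 180k array. The array carried primer-extended double-stranded 36-bp intergenic genomic probes and negative controls. Binding intensity is the highest Masliner-normalised natural-log median intensity across replicate spots of either orientation of each probe.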
As to “GAATAAGATAGATATACACACCATTATAAATATAAA [CACACA_site5392]”, the “gcPBM binding intensity (ln)” value was determined as 8.99 ± 0.45.
The same measure for “GCTAAAAGTATATGCACACACATATATATGCACATA [CACACA_site1635]”: 9.47 ± 0.38.
The same measure for TTTTGTACTTCATGCGTGCACAGAAATATATTATAT: 8.82 ± 0.36; for “TTAAATAGATAAACTAAACACACAAAAAAAAAAAAA [CACACA_site8308]”: 8.71 ± 0.47.
To “TGTGCAAGATTTTTCTGTACATATATATAAATATAT [XGTACX_site1796]” belongs 8.57 ± 0.42.
As to “AAATATTCTTGTTTAATACACACTGTAGTATTATAT [CACACA_site433]”, the “gcPBM binding intensity (ln)” value was determined as 8.94 ± 0.4.
For “ATCATTCTTCATTTGTCACACATGATAAAAATATAT [CACACA_site4953]”, the “gcPBM binding intensity (ln)” value is 8.77 ± 0.4.
As to “CTATTATAATATTTTACACACCATGTAAAATATATA [CACACA_site3206]”, the “gcPBM binding intensity (ln)” value is 8.69 ± 0.37.
On to “TTTTTTAAGTAATGAAATGATTTTCTTATAGAATAA [GTGCAC_negctrl_site395]”, for which the “gcPBM binding intensity (ln)” value came out at 7.96 ± 0.36.
On to “CATTAACATTTTATTACACACAATAATTTATAAGTA [CACACA_site4083]”, for which the “gcPBM binding intensity (ln)” value worked out at 8.69 ± 0.42.
For “ATTTATATTTGTATTTGTACTTATATTTATATTTAT [XGTACX_site1540]”, the “gcPBM binding intensity (ln)” value is 9.07 ± 0.47.
Take “GCTTTTGTCATGTGCACACACGTATATATTATATAT [CACACA_site6146]”: the “gcPBM binding intensity (ln)” value turned out to be 9.73 ± 0.45.
The same measure for AAAAAGGTTAAGGTAGTGCATAATAAAGAATATTAA: 8.76 ± 0.56.
For the sequence “CAAATTATTATTTAAGCACACATGTTTATTTTTTTT [CACACA_site2672]”, the “gcPBM binding intensity (ln)” value came to 8.88 ± 0.4.
To TAGGCCTTAAATCGTGTGCACTTTTTTTTTTTTTTT belongs 8.86 ± 0.54.
With “TATGTGCCAAAACACACACACATATATATATATATA [CACACA_site469]”, the “gcPBM binding intensity (ln)” value stood at 10.2 ± 0.2.
To “TTTTTTTTTTTTTTTTTTGGTGAGAGAAGAAAATTC [CACACA_negctrl_site950]” belongs 8.07 ± 0.29.
“AAGCATACATCAAGCACACACACACCCACACCCACA [CACACA_site372]”: the “gcPBM binding intensity (ln)” value is 10.3 ± 0.42.
Take “AAATATATCAATATATATATATATATATATATATAT [XGTACX_negctrl_site544]”: the “gcPBM binding intensity (ln)” value came out at 9.65 ± 0.085.
For “TTTTGTACAAAAATAATGCACACTATATCAAGTTTT [CACACA_site3595]”, the “gcPBM binding intensity (ln)” value amounted to 8.72 ± 0.34.
For the sequence “AAGAAAATATATTCACATGAAGAATTAAAATAAAAC [TGCATGCA_negctrl_site119]”, the “gcPBM binding intensity (ln)” value stood at 8.86 ± 0.52.
Consider “ATATAAAAAGGAAAAAGTACAAAAAAATGTTTGTGA [XGTACX_site8552]”, for which the “gcPBM binding intensity (ln)” value stood at 8.63 ± 0.49.
With “TGGATATAAAACAACGTGCACTTGGTTGATTTTAAA [GTGCAC_site9900]”, the “gcPBM binding intensity (ln)” value turned out to be 8.63 ± 0.46.
Regarding “ATTTATTTATATAATACACACAAATATCTTAATTAA [CACACA_site3993]”, the “gcPBM binding intensity (ln)” value amounted to 8.65 ± 0.45.
To “TATGGTAAATACAACACACACACATATGTATTTATA [CACACA_site4666]” belongs 9.51 ± 0.3; to “AAAATACTTTGAATTTGTACATATAGACATAATATT [XGTACX_site6181]”, 8.63 ± 0.4.
To “CGCGAACATACATACACACACATATTTATATAGGTA [CACACA_site6241]” belongs 9.53 ± 0.38; to “AAAGAAATAAAAAAAAGTACACAATTATAAATATAT [XGTACX_site3428]”, 8.85 ± 0.54.
With “GTATGTAATATTTTAGTGCAAAAAAAAAAAAAAAAA [GTGCAC_site9790]”, the “gcPBM binding intensity (ln)” value was 8.48 ± 0.58.
To “GATTATCTATCGCTTGAATGAAATGAAATCATGCAA [GTGCAC_negctrl_site471]” belongs 8.58 ± 0.41; to “AATACCGGAAAGCAAACACACATTTTAAAACCATAA [CACACA_site3862]”, 9.26 ± 0.42; to “ATAATAAATGATAGCACACATATGTACATATATACA [CACACA_site864]”, 9.14 ± 0.38.
To “AAATAAAATAAAAGCACACAAAATGTAAATAATTAT [CACACA_site2775]” belongs 9.15 ± 0.44.
Regarding “TAATAATTATTGCACGCACACAAAAACCTATAGATT [CACACA_site2931]”, the “gcPBM binding intensity (ln)” value was determined as 9.09 ± 0.45.
The same measure for “ATTTATAAAACAGGCACACATATAATAAATTTTATA [CACACA_site2600]”: 8.82 ± 0.45; for “ACTATAAATATTTATAAACACACAAATATATATATT [CACACA_site7891]”: 8.84 ± 0.38.
To “ATACAATACACCGAACGTACATAAATCTATCTTTTA [XGTACX_site3668]” belongs 8.96 ± 0.4; to “ATTTTTTTTTTTACAGTGGAACCATATTTGCTCATT [CACACA_negctrl_site940]”, 8.82 ± 0.51; to “TATATATATATAATTTGTACATATATATGTAACAAT [XGTACX_site8728]”, 8.79 ± 0.28.
As to “TTCTGCTACCACTTGAATGTCAATGAAATTAAAAAA [CACACA_negctrl_site1164]”, the “gcPBM binding intensity (ln)” value came to 8.31 ± 0.45.
For “GTATGTTAATTTAATTGTACAAAAAGATACACTGAT [XGTACX_site5710]”, the “gcPBM binding intensity (ln)” value was 8.81 ± 0.44.
As to “TTTTAAAAAAAACAAAAACATTGTCATATGGAAAAT [CACACA_negctrl_site297]”, the “gcPBM binding intensity (ln)” value amounted to 8.49 ± 0.38.
On to “AAATATAAAAAATATACACACATATAAAATCTATAT [CACACA_site7406]”, for which the “gcPBM binding intensity (ln)” value worked out at 8.98 ± 0.43.
To “AGGAACAATATATTTGCACACAAAAAATATATATTT [CACACA_site3316]” belongs 9.18 ± 0.43; to “CAAAAAAAATTATACACACACACACCGATATATATA [CACACA_site4719]”, 10.02 ± 0.05; to “TTTATATATCAATACATTATGTATTAAGTCTTACAT [TGCATGCA_negctrl_site499]”, 8.84 ± 0.49.
As for “TTTTAATTAAAAAAATATATAATAAAATTAAATTAT [CACACA_negctrl_site95]”, the “gcPBM binding intensity (ln)” value was found to be 8.21 ± 0.49.
Consider “GGTATATAAAAATATTGTACGAAAATATGCATATAA [XGTACX_site2501]”, for which the “gcPBM binding intensity (ln)” value turned out to be 8.85 ± 0.43.
For the sequence “CAAAACAAGCAAAAATGTACTTGATAAATATTTTCT [XGTACX_site1776]”, the “gcPBM binding intensity (ln)” value amounted to 8.79 ± 0.51.
The same measure for “ATGTTAATCATTAAAAATAAAGTTTAATATAAGAAT [XGTACX_negctrl_site155]”: 8.64 ± 0.45; for “AACATACCCATATACACACACACATAAATACAGATA [CACACA_site4744]”: 10.1 ± 0.35; for “ATTTAATTCTTTTGTTATAAAATTTTAGTATATATA [CACACA_negctrl_site1649]”: 8.57 ± 0.45.
To “TATATAGGTAAAAAATGTACTTATATTGAATATATT [XGTACX_site4414]” belongs 8.56 ± 0.42; to “TTTCCCAAGCTTATTACACACAAGTAGAATAAGCTT [CACACA_site1561]”, 8.7 ± 0.36.
The same measure for “TTTACAATATTAAAATGTACATATAAAATAAATAAA [XGTACX_site8367]”: 8.54 ± 0.46.
In the case of “AATTTGTTAATATTTTGTACACATAATATAAAAACA [XGTACX_site2224]”, the “gcPBM binding intensity (ln)” value is 8.55 ± 0.42.
